Laboratory results: the antibiotic and cytotoxicity screens of Wong et al. (2023)
This is one part of the list.

system: S. aureus RN4220; assay: growth inhibition call (relative growth <= 0.2); settings: 50 µM

Growth inhibition call, inactive:
C[C@H](CO)N1C[C@H](C)[C@@H](CN(C)C(=O)c2cccc(F)c2)Oc2cc(-c3cncnc3)ccc2S1(=O)=O, C[C@@H]1CN([C@H](C)CO)S(=O)(=O)c2ccc(C3=CCCC3)cc2O[C@@H]1CN(C)C(=O)c1cnccn1, COc1ccc(NC(=O)N(C)C[C@@H]2OCCCC[C@@H](C)Oc3ccc(NS(=O)(=O)c4c(C)noc4C)cc3C(=O)N([C@H](C)CO)C[C@H]2C)cc1, COC1=CC(=O)c2ccccc2C1=O, C[C@@H]1COCC(=O)N1, C[C@@H]1CN([C@@H](C)CO)C(=O)CCCn2nncc2CO[C@H]1CN(C)C(=O)Nc1ccccc1C(F)(F)F, CN1C(=O)c2cc(NS(=O)(=O)c3cccc(F)c3)ccc2OC[C@H]2O[C@@H](CC(=O)NCCN3CCCCC3)CC[C@H]21, C[C@@H]1CN([C@@H](C)CO)S(=O)(=O)c2ccc(C#Cc3ccncc3)cc2O[C@H]1CN(C)C(=O)Nc1ccc2c(c1)OCO2, COc1ccc(CN(C)C[C@@H]2OCCCC[C@H](C)Oc3ccc(NC(=O)Nc4c(C)noc4C)cc3C(=O)N([C@@H](C)CO)C[C@H]2C)cc1, C[C@@H]1CN([C@H](C)CO)C(=O)c2cccc(NC(=O)Nc3cccc4ccccc34)c2O[C@H]1CN(C)S(=O)(=O)c1ccc(F)cc1, C[C@@H]1CN([C@@H](C)CO)C(=O)c2cc(NC(=O)Cn3cnnn3)ccc2O[C@H]1CN(C)C(=O)Nc1ccccc1, C[C@H]1CCCCO[C@@H](CN(C)S(=O)(=O)c2cccs2)[C@@H](C)CN([C@@H](C)CO)C(=O)c2cc(NS(=O)(=O)c3cn(C)cn3)ccc2O1, CCNC(=S)N1CCC[C@H](C(N)=O)C1, COc1ccccc1NC(=O)N(C)C[C@H]1Oc2ncc(C#CC(C)C)cc2C(=O)N([C@H](C)CO)C[C@@H]1C, CN1C(=O)c2cc(NS(C)(=O)=O)ccc2OC[C@H]2O[C@@H](CC(=O)N3CCOCC3)CC[C@H]21, O=C(O)c1c2ccccc2cc2ccccc12, C[C@H](CO)N1C[C@H](C)[C@@H](CN(C)S(=O)(=O)c2ccccc2)OCCCC[C@H](C)Oc2ccc(NC(=O)CCC(F)(F)F)cc2C1=O
